No constants are given. Whether binding was seen depends on the method and setting. In cells and extracts the contact can be indirect. Some binding calls cover weakened binding; strength is not graded here. For some assays here: Where a sequence is shown, tags or fusion partners need not be part of it.

Amino acid sequences for entries named in this document (tags omitted). A change or cut given only in a name is not applied to a line headed by its entry. Chains listed by the source or under a name are the forms on record and can include a tag or linker. Residues count along the entry.
UniProt P03203: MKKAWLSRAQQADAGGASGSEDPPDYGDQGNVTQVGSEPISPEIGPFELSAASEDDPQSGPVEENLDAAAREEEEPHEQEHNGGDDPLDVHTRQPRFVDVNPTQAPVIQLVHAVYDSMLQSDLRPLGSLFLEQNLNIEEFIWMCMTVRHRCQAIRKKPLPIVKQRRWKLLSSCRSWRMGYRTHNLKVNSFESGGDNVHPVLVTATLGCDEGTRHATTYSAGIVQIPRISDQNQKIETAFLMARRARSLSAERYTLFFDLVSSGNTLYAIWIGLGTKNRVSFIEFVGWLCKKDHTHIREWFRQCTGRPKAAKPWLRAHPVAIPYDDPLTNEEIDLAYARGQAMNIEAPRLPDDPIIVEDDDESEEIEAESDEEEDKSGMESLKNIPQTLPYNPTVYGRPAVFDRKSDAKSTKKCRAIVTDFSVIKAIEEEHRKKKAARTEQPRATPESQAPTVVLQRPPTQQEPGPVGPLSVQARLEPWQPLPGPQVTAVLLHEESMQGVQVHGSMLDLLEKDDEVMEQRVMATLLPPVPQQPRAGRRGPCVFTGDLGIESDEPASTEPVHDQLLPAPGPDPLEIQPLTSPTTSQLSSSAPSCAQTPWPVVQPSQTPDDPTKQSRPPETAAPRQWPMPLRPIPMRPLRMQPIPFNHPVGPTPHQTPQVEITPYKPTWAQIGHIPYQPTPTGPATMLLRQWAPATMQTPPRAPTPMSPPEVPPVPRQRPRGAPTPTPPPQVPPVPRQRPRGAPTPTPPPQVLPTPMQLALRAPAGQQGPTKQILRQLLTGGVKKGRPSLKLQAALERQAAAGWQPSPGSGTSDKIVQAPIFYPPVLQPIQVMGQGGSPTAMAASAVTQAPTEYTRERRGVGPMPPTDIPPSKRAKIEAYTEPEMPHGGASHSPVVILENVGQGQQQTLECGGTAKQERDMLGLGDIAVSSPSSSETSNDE
Flag-tagged EBNA3B 394–938: residues 394-938 of P03203
UniProt P62068: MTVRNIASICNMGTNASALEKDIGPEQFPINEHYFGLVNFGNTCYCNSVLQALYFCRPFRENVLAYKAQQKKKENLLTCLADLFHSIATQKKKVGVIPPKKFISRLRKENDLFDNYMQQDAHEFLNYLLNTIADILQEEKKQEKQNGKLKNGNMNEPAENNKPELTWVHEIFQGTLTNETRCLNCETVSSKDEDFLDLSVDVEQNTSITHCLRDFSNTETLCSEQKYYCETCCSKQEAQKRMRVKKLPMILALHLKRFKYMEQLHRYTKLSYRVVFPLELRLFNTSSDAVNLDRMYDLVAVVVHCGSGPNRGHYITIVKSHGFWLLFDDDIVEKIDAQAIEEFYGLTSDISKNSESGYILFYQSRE
UniProt Q8TAF3: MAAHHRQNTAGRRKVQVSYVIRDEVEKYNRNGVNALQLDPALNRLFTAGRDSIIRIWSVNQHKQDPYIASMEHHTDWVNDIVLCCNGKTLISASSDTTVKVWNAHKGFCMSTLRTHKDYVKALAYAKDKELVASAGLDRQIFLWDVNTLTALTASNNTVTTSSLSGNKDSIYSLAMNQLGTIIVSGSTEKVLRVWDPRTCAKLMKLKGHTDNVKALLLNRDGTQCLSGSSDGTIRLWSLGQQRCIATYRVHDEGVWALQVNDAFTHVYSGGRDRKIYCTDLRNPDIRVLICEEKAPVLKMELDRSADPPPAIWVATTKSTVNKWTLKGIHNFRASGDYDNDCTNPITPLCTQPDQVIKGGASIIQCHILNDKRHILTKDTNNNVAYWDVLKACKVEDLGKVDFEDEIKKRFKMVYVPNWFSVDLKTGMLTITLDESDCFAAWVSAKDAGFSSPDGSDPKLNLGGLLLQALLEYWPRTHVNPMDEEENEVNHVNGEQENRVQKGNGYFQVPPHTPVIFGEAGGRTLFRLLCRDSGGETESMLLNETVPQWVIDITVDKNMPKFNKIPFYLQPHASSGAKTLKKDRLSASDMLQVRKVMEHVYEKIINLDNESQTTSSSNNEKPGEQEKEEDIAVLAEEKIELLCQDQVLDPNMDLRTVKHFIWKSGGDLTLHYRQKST

Experiment [1] addresses Flag-tagged EBNA3B 1–938 (Epstein-Barr virus) (UniProt P03203). Briefly: co-IP.
Experiment [2] has as its target Flag-tagged EBNA3B 394–938 (Epstein-Barr virus) (UniProt P03203). Kind of experiment: co-IP.

Take “Xpress tagged USP46 (from UniProt P62068 1-366) (enzyme)”: in experiment [1], the binding result is “binds”.
For “Xpress tagged WDR48 aa1-634 (WDR48ΔSLD2) (from UniProt Q8TAF3 1-634) (domain or fragment)”, the binding entry in experiment [2] is “no binding”.
As to “Xpress tagged full length WDR48 (from UniProt Q8TAF3 1-677)”, the binding entry in experiment [1] and in experiment [2] was “binds” each time.

B1: Xpress tagged WDR20 (protein, UniProt Q8TBZ3 1-569)
chain: MATEGGGKEMNEIKTQFTTREGLYKLLPHSEYSRPNRVPFNSQGSNPVRVSFVNLNDQSGNGDRLCFNVGRELYFYIYKGVRKAADLSKPIDKRIYKGTQPTCHDFNHLTATAESVSLLVGFSAGQVQLIDPIKKETSKLFNEERLIDKSRVTCVKWVPGSESLFLVAHSSGNMYLYNVEHTCGTTAPHYQLLKQGESFAVHTCKSKSTRNPLLKWTVGEGALNEFAFSPDGKFLACVSQDGFLRVFNFDSVELHGTMKSYFGGLLCVCWSPDGKYIVTGGEDDLVTVWSFVDCRVIARGHGHKSWVSVVAFDPYTTSVEEGDPMEFSGSDEDFQDLLHFGRDRANSTQSRLSKRNSTDSRPVSVTYRFGSVGQDTQLCLWDLTEDILFPHQPLSRARTHTNVMNATSPPAGSNGNSVTTPGNSVPPPLPRSNSLPHSAVSNAGSKSSVMDGAIASGVSKFATLSLHDRKERHHEKDHKRNHSMGHISSKSSDKLNLVTKTKTDPAKTLGTPLCPRMEDVPLLEPLICKKIAHERLTVLIFLEDCIVTACQEGFICTWGRPGKVVSFNP
With B1, the binding entry in experiment [1] is on record as “binds”.
